Source: PubChem BioAssay AID485364 (National Center for Advancing Translational Sciences (NCATS), 2010)
The campaign covered roughly 360,000 compounds. About 11,000 (3.1%) were called active. The shares of active, inactive and inconclusive entries below differ from those in the screen. The call rests on the fitted dose curve; in most records, active means well fitted inhibition curve with a large enough effect; inconclusive means small, poorly fitted or top-dose-only effect; inactive means no such curve, though single readings can be large or run the other way. Potencies of inconclusive entries are left out as doubtful fits.

The molecules below were run against Schistosoma mansoni thioredoxin glutathione reductase (TGR) (UniProt Q962Y6) (assay: qHTS Assay for the Inhibitors of Schistosoma Mansoni Peroxiredoxins). Settings: purified TGR, DTNB reduction, TNB absorbance 405 nm; series mostly up to 114 µM.
Outline: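 First, TGR (20 nM dispensed) and NADPH were mixed with compound. Second, a 15 min room-temperature incubation followed. Third, further NADPH and then DTNB were added to start the reaction. Finally, TNB absorbance was monitored kinetically.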
Further: nearly all actives have a fitted effect of over 60% in size.
Potency means the concentration at half of the fitted maximal effect; tags describe the fitted curve by direction and shape.

Structure (SMILES)	Potency
Cc1cc(C)c2c(c1)[C@@H]1C=CC[C@@H]1[C@H](c1ccc(S(=O)(=O)N3CCOCC3)cc1)N2	active: 2.82 µM
COc1ccc(N2CC(NC(=O)N(C)CCC#N)CC2=O)cc1 (stereo not drawn)	inactive
CCOC(=O)c1ccc(N2C(=O)c3n[nH]c(C)c3C2c2ccc(OC)c(OC)c2)cc1 (stereo not drawn)	inconclusive [inhibitor, single point]
CCOc1ccc(-n2c(=O)c3c4c(sc3n(Cc3cccc(Cl)c3)c2=O)CCCC4)cc1	inactive
CC1(C)CC(NC(=O)c2ccc(-c3ccc([N+](=O)[O-])cc3)o2)CC(C)(C)N1	active: 39.8 µM
COc1ccc(CCN2C(=O)CC(NCCc3ccc(S(N)(=O)=O)cc3)C2=O)cc1OC (stereo not drawn)	active: 17.8 µM
CC1CCCN(S(=O)(=O)c2ccc(NC(=O)C3CCN(C(=O)C(C)(C)C)CC3)cc2)C1 (stereo not drawn)	inactive
CN1CCN(c2ccc(S(=O)(=O)N3CCOCC3)cc2NC(=O)CC(C)(C)C)CC1	inconclusive [inhibitor, single point]
Cc1cccc(NC(=O)C(Cc2ccccc2)c2nn[nH]n2)c1C (stereo not drawn)	inconclusive [inhibitor, single point]
O=C(NCCSCc1ccco1)Nc1cccc(Cl)c1	inconclusive [inhibitor, single point]
Cc1cc(-n2c(C)cc(C(=O)CSc3ccc4c(c3)OCCO4)c2C)no1	inconclusive [inhibitor, partial curve]
CN(C)c1oc(-c2ccco2)nc1S(=O)(=O)c1ccc(Br)cc1	inconclusive [inhibitor, partial curve]
COc1cccc(CNCCOCCO)c1OC	inconclusive [inhibitor, full curve, poor fit]
O=C(Nc1cc(Cl)ccc1-n1cncn1)c1ccc([N+](=O)[O-])s1	inconclusive [inhibitor, full curve, poor fit]
COc1ccc(COC(=O)c2cc([N+](=O)[O-])ccc2N2CCOCC2)cc1F	inactive
OCCN(CC#CCC(O)(c1ccccc1)C1CCCC1)CCO (stereo not drawn)	inconclusive [inhibitor, partial curve]
CCCCNC(=O)CN(Cc1ccco1)S(=O)(=O)c1ccc(C(C)=O)cc1	inconclusive [inhibitor, partial curve]
O=C(C1=C[C@H](c2ccc(C(F)(F)F)cc2)C[C@H](OCc2ccc(CO)cc2)O1)N1CCN(Cc2ccc3c(c2)OCO3)CC1	inconclusive [inhibitor, single point]
Cc1ccc(C)c(N2CCN(C(=O)Cn3cccc3)CC2)c1	active: 39.8 µM
CCCSc1nsc(NC(=O)CC)n1	inactive
Cc1nc2c(C)cccc2c(SC(=N)N)c1CC=C(Cl)Cl	inconclusive [inhibitor, single point]
O=C(O)CCN1C(=O)/C(=C\c2cccc(OCc3ccccc3)c2)SC1=S	inactive
CC(CCc1ccccc1)NC(=O)CN1CCN(c2ccc(O)cc2)CC1 (stereo not drawn)	inconclusive [inhibitor, single point]

Structure (SMILES)	Potency
O=C1CC[C@@H](OCc2ccccc2)CCN1CC[C@H](Sc1ccccc1)c1ccccc1	inconclusive [inhibitor, full curve]
CN1CCN(CCc2nc3cc(NC(=O)COc4ccc(Cl)cc4)ccc3n2C)CC1	inconclusive [inhibitor, single point]
CCN(CC)C(=O)c1ccc2c(c1)C1C(Cl)C(Sc3ccccc3[N+](=O)[O-])CC1C(C(=O)O)N2 (stereo not drawn)	active: 3.16 µM
COC(=O)c1c(NC(=S)Nc2ccc(CC(=O)O)cc2)sc(C)c1C	inconclusive [inhibitor, single point]
COc1ccc(-c2noc(-c3ccccc3C(=O)NCc3ccco3)n2)cc1OC	inconclusive [inhibitor, partial curve]
Cc1ccc(C(=O)Nc2cccc(C(F)(F)F)c2)cc1Nc1ccccn1	inconclusive [inhibitor, single point]
CC(=O)c1cccc(NC(=S)N2CCN(S(=O)(=O)c3ccccc3)CC2)c1	inconclusive [inhibitor, partial curve]
COc1ccc(Cl)cc1-n1c(CCC(=O)O)ccc1-c1ccc(C)cc1	active: 39.8 µM
Cc1ccc(S(=O)(=O)N2CCN(C(=O)C3Cc4ccccc4CN3C(=O)c3ccco3)CC2)cc1 (stereo not drawn)	inconclusive [inhibitor, full curve]
O=C(NC(=S)Nc1ccc(Cl)cc1)c1ccccc1	inconclusive [inhibitor, full curve]
O=C1OCc2cc(NC(=O)C34CC5CC(CC(C5)C3)C4)ccc21	inactive
COc1ccc(OC)c(C2CC(=O)Nc3ccc4ccccc4c32)c1 (stereo not drawn)	inactive
CC(=O)c1cc2c(cc1N/C(=N/S(=O)(=O)c1ccc(C)cc1)c1ccc(Cl)cc1)OCO2	inconclusive [inhibitor, single point]
N#CC(C#N)=Cc1ccc(NC(=O)c2ccc(Br)cc2)cc1	active: 2.51 µM
CSc1nc(N)nc(SCC(=O)c2ccccc2)c1C#N	inconclusive [inhibitor, partial curve]
COc1ccccc1N1C(=O)c2cccnc2C1=O	active: 56.2 µM
OCCCCNc1cccc2ccccc12	inconclusive [inhibitor, partial curve]
Cn1c(CNc2ccc(O)cc2)nc2ccccc21	inconclusive [inhibitor, partial curve, poor fit]
CCc1ccc(N(CC(=O)NCc2ccc(F)cc2)C(=O)c2csnn2)cc1	inconclusive [inhibitor, single point]
COc1ccccc1-c1cc(C(F)(F)F)nc(S(=O)(=O)CCCC(=O)O)n1	inconclusive [inhibitor, partial curve]
Cc1ccc(NC(=O)CSc2nc(-c3ccco3)nc3cc(=O)[nH]n23)c(Cl)c1	inconclusive [inhibitor, single point]
N=C1C(c2nc3ccccc3s2)=C(O)CN1NC(=O)c1ccccc1[N+](=O)[O-]	inactive
Cc1ccc(CN2C(=O)c3ccccc3C2C(=O)NCc2cccnc2)cc1 (stereo not drawn)	inconclusive [inhibitor, single point]

Structure (SMILES)	Potency
CC1CCCN(C(=O)COc2ccc3c(c2)OCO3)C1 (stereo not drawn)	inactive
COc1ccc(OCC(=O)NC(=S)Nc2ccc(S(=O)(=O)Nc3cc(OC)nc(OC)n3)cc2)cc1	inconclusive [inhibitor, partial curve]
Cn1c(=O)c(N)c2c3c(c(Br)ccc31)C(=O)c1ccccc1-2	active: 12.6 µM
CCOc1ccc(S(=O)(=O)N(C)CC(=O)NCc2ccco2)cc1	inconclusive [inhibitor, partial curve]
O=C(N/N=C/c1cc(Cl)ccc1O)c1ccccc1Br	inactive
COc1ccc(C2C3=C(CC(C)(C)CC3=O)N(C)C3=C2C(=O)CC(C)(C)C3)cc1OC	inconclusive [inhibitor, single point]
Cc1ccc(NC(=O)c2sc3ncn(CC(=O)N4CCN(c5ccccn5)CC4)c(=O)c3c2C)cc1F	inconclusive [inhibitor, full curve, poor fit]
COCc1ccc(CN2CCc3c([nH]c4ccccc34)C2CC(C)C)o1 (stereo not drawn)	active: 35.5 µM
Cc1c(C(=O)N(C)C)sc2c1c(=O)n(-c1ccc(F)cc1)c(=O)n2Cc1cc(=O)n2ccccc2n1	inactive
N#Cc1ccc2c(c1)C[C@]1(c3ccsc3)Oc3c(c(=O)oc4ccc(F)cc34)C2O1	inconclusive [inhibitor, partial curve]
CCOC(=O)CNC(=O)CN1CCCN(S(=O)(=O)c2ccc(Br)s2)CC1	inconclusive [inhibitor, partial curve]
C=CCNc1nc(-c2cccs2)c(CC(=O)O)s1	inconclusive [inhibitor, partial curve]
O=C1CCC/C(=N/NC(=O)c2cc(NS(=O)(=O)c3cccs3)cc(NS(=O)(=O)c3cccs3)c2)C1	inconclusive [inhibitor, partial curve]
COc1ccc(NC(=O)c2cccc3ccccc23)cc1	active: 89.1 µM
Cc1cc(=O)[nH]c(SCc2cccc3cccnc23)n1	inactive
CN1C(=O)C2C(c3ccc(N(C)C)cc3)NN(Cc3ccccc3)C2C1=O (stereo not drawn)	inconclusive [inhibitor, partial curve]
Cc1ccccc1-n1nc2c(c1NC(=O)c1ccc(S(=O)(=O)N(C)C)cc1)CSC2	inconclusive [inhibitor, full curve, poor fit]
Cc1occc1-c1nnc(SCC(=O)NCc2ccco2)n1CC(C)C	inconclusive [inhibitor, full curve]
O=C(Nc1cn(-c2ccccc2)nc1-c1cccs1)c1ccco1	inactive
O=C(NC(=S)N1CCCc2ccccc21)c1ccccc1	inconclusive [inhibitor, partial curve]
CCc1ccccc1S(=O)(=O)Cc1ccc(C(=O)NCc2cccs2)o1	inconclusive [inhibitor, partial curve]
CC(=O)c1ccc(S(=O)(=O)NCCC(=O)NCCc2c[nH]c3ccccc23)cc1	inconclusive [inhibitor, partial curve]
